Laboratory results reported in PMC4552014, “High Affinity Binders to EphA2 Isolated from Abdurin Scaffold Libraries; Characterization, Binding and Tumor Targeting” (PLoS ONE, 2015).
Results are given in words; binding and its absence hold for the method and conditions named. Some results given as binding are weak or reduced against the parent protein; the word gives no strength. For some of these results: Where a sequence is shown, tags or fusion partners need not be part of it.

Chains of the proteins cited; added tags and fusions are not shown. Lines headed by an entry give the natural chain unless they say otherwise; changes in a name come on top. Residues count along the entry.
UniProt P29317: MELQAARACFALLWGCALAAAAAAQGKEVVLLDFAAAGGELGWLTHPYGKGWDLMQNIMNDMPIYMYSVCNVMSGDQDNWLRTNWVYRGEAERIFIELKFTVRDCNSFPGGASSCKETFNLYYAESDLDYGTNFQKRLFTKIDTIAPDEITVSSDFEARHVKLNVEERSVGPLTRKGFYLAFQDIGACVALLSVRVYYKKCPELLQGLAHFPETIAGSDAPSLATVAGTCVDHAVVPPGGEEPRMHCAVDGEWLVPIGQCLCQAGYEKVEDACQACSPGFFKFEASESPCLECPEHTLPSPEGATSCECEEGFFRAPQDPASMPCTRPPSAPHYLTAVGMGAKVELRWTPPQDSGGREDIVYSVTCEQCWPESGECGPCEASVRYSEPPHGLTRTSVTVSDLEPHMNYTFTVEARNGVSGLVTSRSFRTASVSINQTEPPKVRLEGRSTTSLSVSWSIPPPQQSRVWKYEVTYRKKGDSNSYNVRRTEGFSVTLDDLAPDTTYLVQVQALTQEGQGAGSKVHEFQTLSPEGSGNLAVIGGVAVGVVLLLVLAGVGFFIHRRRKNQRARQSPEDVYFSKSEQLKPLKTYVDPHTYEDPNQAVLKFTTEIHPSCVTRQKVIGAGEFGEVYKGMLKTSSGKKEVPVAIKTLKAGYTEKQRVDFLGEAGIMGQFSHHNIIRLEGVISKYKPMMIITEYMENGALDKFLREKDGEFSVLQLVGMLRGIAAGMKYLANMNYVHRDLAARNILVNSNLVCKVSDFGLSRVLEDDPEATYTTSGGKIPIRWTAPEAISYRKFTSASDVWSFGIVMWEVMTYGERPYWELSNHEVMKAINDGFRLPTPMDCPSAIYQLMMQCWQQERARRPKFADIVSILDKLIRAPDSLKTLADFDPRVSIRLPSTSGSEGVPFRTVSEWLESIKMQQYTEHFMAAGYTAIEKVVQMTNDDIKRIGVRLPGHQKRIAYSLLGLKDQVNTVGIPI
hEphA2 receptor on HEK293-hEphA2 cells: residues 24-976 of P29317
UniProt Q03145, residues 26-538: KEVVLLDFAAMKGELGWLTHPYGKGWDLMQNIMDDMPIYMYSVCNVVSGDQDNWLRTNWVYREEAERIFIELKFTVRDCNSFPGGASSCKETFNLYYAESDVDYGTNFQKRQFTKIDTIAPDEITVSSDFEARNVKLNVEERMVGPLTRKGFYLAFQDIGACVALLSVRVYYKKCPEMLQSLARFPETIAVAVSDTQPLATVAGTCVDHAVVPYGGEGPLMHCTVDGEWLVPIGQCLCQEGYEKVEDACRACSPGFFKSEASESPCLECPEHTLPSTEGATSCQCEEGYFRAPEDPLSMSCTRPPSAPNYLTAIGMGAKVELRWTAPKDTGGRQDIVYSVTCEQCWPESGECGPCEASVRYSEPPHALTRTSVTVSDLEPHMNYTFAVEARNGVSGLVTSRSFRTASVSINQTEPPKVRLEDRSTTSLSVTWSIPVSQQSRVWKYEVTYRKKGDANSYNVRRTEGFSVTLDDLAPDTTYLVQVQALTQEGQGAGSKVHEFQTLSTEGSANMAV
UniProt P02769, residues 25-607: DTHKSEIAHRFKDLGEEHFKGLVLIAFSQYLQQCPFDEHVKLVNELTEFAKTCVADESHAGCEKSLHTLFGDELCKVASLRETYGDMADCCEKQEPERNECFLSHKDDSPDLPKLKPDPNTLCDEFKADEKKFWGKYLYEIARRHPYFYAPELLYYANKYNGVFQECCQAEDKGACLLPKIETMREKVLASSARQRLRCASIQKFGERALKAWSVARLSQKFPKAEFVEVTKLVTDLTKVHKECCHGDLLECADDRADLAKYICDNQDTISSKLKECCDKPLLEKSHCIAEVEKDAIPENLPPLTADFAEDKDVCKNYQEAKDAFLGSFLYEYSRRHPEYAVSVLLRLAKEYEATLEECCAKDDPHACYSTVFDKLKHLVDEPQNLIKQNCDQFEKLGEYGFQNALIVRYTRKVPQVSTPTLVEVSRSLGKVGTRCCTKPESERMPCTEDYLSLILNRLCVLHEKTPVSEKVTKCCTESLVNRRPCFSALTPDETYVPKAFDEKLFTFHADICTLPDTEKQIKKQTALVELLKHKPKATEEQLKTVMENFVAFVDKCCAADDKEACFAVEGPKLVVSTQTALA

T1: death receptor-6-Fc fusion (UniProt O75509)
T1 sequence: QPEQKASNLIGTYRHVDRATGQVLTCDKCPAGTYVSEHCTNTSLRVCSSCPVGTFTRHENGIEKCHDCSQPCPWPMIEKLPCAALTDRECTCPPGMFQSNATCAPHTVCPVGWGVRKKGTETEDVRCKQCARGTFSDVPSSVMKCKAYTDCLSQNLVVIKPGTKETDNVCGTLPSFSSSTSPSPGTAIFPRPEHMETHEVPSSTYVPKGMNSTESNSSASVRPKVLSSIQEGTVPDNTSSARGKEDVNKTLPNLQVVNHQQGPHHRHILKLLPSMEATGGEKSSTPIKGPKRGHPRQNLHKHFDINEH


What was measured:
[1] = biological target: hEphA2 receptor on HEK293-hEphA2 cells (human) (UniProt P29317); assay: ELISA; cell-based phage ELISA on HEK293-hEphA2 cells induced with 100 nM doxycycline for 24 hours, fixed in 2% PFA; 100 ul phage supernatant for 2 hours; anti-M13-HRP
[2] = biological target: hEphA2 receptor on HEK293-hEphA2 cells (human) (UniProt P29317); assay: condition: only cells without doxycycline induction; ELISA; cell-based phage ELISA on HEK293-hEphA2 cells in the absence of doxycycline, fixed in 2% PFA; phage supernatants; anti-M13-HRP
[3] = biological target: T2, murine EphA2-Fc fusion protein (mouse, UniProt Q03145 26-538); assay: ELISA; phage ELISA: proteins coated on Nunc Maxisorp plates (range of 10 μg/ml in PBS, overnight 4°C), phage supernatants in 3% MPBST 1 hour at RT, detected with anti-M13-HRP; only the target purified
T2 construct: ephrin receptor tyrosine kinase class A2 (EphA2), mouse, extracellular domain as Fc chimera; Biotinylated in-house (EZ-Link Sulfo-NHS-LC-Biotin) for the CIS display selections and the screening ELISA; also called mEphA2-Fc; mEphA2; source: bought: R&D Systems

[4] = biological target: bovine serum albumin (bovine) (UniProt P02769); assay: as above
[5] = biological target: T1, death receptor-6-Fc fusion; assay: as above
hEphA2-Fc = biological target: T3, hEphA2-Fc (human, UniProt P29317 24-537); assay: ELISA; end-point titration ELISA in 96-well plates coated with hEphA2-Fc or mEphA2-Fc; purified Abdurins titrated; detected by anti-FLAG M2-HRP; the constant is printed as 'Affinity (M)'; both purified
T3 construct: EphA2, human, as Fc fusion coated on 96-well plates; Probably the extracellular domain; also called huEphA2

| Binder | binding [1] | binding [2] | binding [3] | binding [4] | binding [5] | binding (hEphA2-Fc) |
| --- | --- | --- | --- | --- | --- | --- |
| Abdurin loop DE clone D2, displayed on phage (designed binder) GPSVFLFPPKPKDTLMISRTPEVTCVVVDVSHEDPEVKFNWYVDGVEVHNAKTKPRQLDPLYGYRVVSVLTVLHQDWLNGKEYKCKVSNKALPAPIEKTISKAK | binds | no binding | binds | no binding | no binding |  |
| Abdurin H6, purified loop DE binder (designed binder, Abdurin scaffold (human IgG1 CH2 domain), stretch before loop DE; loop DE of clone H6, in place of Glu293-Thr299 (EEQYNST) of the scaffold; Abdurin scaffold (human IgG1 CH2 domain), stretch after loop DE) GPSVFLFPPKPKDTLMISRTPEVTCVVVDVSHEDPEVKFNWYVDGVEVHNAKTKPRRVDPLGGYRVVSVLTVLHQDWLNGKEYKCKVSNKALPAPIEKTISKAK | binds | no binding | binds | no binding | no binding |  |
| Abdurin loop DE clone B8, displayed on phage (designed binder) GPSVFLFPPKPKDTLMISRTPEVTCVVVDVSHEDPEVKFNWYVDGVEVHNAKTKPRGYYALGGYRVVSVLTVLHQDWLNGKEYKCKVSNKALPAPIEKTISKAK | binds | no binding | binds | no binding | no binding |  |
| Abdurin loop DE clone B11, displayed on phage (designed binder) GPSVFLFPPKPKDTLMISRTPEVTCVVVDVSHEDPEVKFNWYVDGVEVHNAKTKPRSYYALGGYRVVSVLTVLHQDWLNGKEYKCKVSNKALPAPIEKTISKAK | binds | no binding | binds | no binding | no binding |  |
| Abdurin loop DE clone A5, displayed on phage (designed binder) GPSVFLFPPKPKDTLMISRTPEVTCVVVDVSHEDPEVKFNWYVDGVEVHNAKTKPRERYVSYVYRVVSVLTVLHQDWLNGKEYKCKVSNKALPAPIEKTISKAK | binds | no binding | binds | no binding | no binding |  |
| Abdurin loop DE clone H3, displayed on phage (designed binder) GPSVFLFPPKPKDTLMISRTPEVTCVVVDVSHEDPEVKFNWYVDGVEVHNAKTKPRAYYALGGYRVVSVLTVLHQDWLNGKEYKCKVSNKALPAPIEKTISKAK |  |  |  | no binding | no binding |  |
| Abdurin loop DE clone E10, displayed on phage (designed binder) GPSVFLFPPKPKDTLMISRTPEVTCVVVDVSHEDPEVKFNWYVDGVEVHNAKTKPRQYDPLYGYRVVSVLTVLHQDWLNGKEYKCKVSNKALPAPIEKTISKAK |  |  |  | no binding | no binding |  |
| Abdurin E10, purified non-matured parental loop DE binder (designed binder) GPSVFLFPPKPKDTLMISRTPEVTCVVVDVSHEDPEVKFNWYVDGVEVHNAKTKPRQYDPLYGYRVVSVLTVLHQDWLNGKEYKCKVSNKALPAPIEKTISKAK |  |  |  |  |  | no binding |
| Abdurin H3, purified non-matured parental loop DE binder (designed binder) GPSVFLFPPKPKDTLMISRTPEVTCVVVDVSHEDPEVKFNWYVDGVEVHNAKTKPRAYYALGGYRVVSVLTVLHQDWLNGKEYKCKVSNKALPAPIEKTISKAK |  |  |  |  |  | no binding |
